Source: article PMC10575725
Results are given in words; binding and its absence hold for the method and conditions named. Binding seen in cells or lysates may run through a third protein. Some binding calls cover weakened binding; strength is not graded here. For some assays here: Sequences can lack the tags named with a protein.

Chains of the proteins cited; added tags and fusions are not shown.
UniProt Q96P20: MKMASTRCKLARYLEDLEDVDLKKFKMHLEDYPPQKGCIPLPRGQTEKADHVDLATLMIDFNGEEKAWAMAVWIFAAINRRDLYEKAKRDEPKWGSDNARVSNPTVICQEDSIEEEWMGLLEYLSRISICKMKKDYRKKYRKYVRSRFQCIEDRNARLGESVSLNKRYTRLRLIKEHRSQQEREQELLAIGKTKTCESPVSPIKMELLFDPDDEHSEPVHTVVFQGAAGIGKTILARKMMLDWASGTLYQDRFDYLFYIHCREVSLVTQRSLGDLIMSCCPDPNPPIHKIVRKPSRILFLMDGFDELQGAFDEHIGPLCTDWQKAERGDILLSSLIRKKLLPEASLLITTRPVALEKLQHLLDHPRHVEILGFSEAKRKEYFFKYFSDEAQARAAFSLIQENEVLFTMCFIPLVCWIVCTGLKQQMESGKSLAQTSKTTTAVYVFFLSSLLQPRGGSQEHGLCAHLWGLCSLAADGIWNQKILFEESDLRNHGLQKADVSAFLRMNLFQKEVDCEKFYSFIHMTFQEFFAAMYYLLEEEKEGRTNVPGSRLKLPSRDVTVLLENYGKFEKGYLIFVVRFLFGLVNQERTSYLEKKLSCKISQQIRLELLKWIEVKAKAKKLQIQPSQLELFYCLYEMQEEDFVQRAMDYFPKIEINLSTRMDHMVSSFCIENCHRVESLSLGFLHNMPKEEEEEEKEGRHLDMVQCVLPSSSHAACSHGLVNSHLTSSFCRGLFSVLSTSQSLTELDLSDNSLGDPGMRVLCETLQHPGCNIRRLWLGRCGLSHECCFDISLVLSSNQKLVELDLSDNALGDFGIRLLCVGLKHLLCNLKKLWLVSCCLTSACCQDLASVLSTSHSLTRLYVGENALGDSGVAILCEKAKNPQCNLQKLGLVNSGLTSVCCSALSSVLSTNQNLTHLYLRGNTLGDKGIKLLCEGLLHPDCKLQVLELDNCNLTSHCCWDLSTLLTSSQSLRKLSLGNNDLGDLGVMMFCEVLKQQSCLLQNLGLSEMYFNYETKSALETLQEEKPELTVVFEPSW
UniProt Q8R4B8: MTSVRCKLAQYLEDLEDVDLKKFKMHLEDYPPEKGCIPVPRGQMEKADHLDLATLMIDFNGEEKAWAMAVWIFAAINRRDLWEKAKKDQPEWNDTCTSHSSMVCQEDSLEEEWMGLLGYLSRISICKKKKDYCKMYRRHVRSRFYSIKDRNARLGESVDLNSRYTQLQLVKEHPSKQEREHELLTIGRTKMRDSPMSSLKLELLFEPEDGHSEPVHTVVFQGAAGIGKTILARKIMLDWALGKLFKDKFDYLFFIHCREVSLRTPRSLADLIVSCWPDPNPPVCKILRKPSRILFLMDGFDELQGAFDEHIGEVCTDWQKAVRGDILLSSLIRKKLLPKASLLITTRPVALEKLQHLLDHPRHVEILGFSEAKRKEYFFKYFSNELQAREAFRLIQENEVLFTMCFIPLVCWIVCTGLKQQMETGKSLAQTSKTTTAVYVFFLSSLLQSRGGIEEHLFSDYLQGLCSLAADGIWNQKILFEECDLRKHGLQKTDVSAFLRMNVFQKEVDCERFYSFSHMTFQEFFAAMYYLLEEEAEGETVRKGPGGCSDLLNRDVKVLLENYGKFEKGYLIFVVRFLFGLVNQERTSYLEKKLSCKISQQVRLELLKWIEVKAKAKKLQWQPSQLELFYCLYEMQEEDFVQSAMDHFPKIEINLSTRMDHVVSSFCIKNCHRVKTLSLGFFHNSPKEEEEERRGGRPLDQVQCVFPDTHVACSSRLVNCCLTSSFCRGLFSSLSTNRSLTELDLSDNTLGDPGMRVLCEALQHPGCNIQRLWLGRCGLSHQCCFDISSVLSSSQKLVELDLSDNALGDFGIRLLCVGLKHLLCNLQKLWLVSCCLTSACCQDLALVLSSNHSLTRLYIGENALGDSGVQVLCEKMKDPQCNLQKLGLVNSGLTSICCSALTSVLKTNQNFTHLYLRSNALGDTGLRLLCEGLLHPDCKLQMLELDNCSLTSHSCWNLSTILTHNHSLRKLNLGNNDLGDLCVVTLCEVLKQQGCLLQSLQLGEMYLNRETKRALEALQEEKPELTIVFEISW

Tests used:
[1] = biological target: Myc-tagged human NLRP3 (human) (UniProt Q96P20); experiment: co-IP; HEK293T cells transfected with the indicated plasmids; IP buffer 1.0% NP-40, 50 mM Tris-HCl pH 7.4, 50 mM EDTA, 150 mM NaCl; protein G agarose with specific antibodies overnight
[2] = biological target: Myc-NLRP3, obtained by in vitro transcription and translation (not stated (human or mouse cDNA cloned)) (UniProt Q96P20); experiment: co-IP; in vitro binding assay: in vitro transcribed and translated Myc-NLRP3 and Flag-HERC5 mixed, co-IP with Myc antibody, immunoblot with Flag or Myc antibody
[3] = biological target: Myc-tagged mouse NLRP3 (mouse) (UniProt Q8R4B8); experiment: co-IP; HEK293T cells transfected with the indicated plasmids; IP buffer 1.0% NP-40, 50 mM Tris-HCl pH 7.4, 50 mM EDTA, 150 mM NaCl; protein G agarose with specific antibodies overnight
[4] = biological target: NLRP3 (NOD-, LRR-, and pyrin domain-containing protein 3), endogenous, mouse peritoneal macrophages (mouse (endogenous in peritoneal macrophages)) (UniProt Q8R4B8); experiment: co-IP; endogenous proteins in mouse peritoneal macrophages, LPS-stimulated or LPS-primed and ATP-activated; IP buffer 1.0% NP-40, 50 mM Tris-HCl pH 7.4, 50 mM EDTA, 150 mM NaCl

B1: FLAG-tagged human HERC6 (enzyme, UniProt Q8IVU3 1-1022)
chain: MYFCWGADSRELQRRRTAGSPGAELLQAASGERHSLLLLTNHRVLSCGDNSRGQLGRRGAQRGELPEPIQALETLIVDLVSCGKEHSLAVCHKGRVFAWGAGSEGQLGIGEFKEISFTPKKIMTLNDIKIIQVSCGHYHSLALSKDSQVFSWGKNSHGQLGLGKEFPSQASPQRVRSLEGIPLAQVAAGGAHSFALSLCGTSFGWGSNSAGQLALSGRNVPVQSNKPLSVGALKNLGVVYISCGDAHTAVLTQDGKVFTFGDNRSGQLGYSPTPEKRGPQLVERIDGLVSQIDCGSYHTLAYVHTTGQVVSFGHGPSDTSKPTHPEALTENFDISCLISAEDFVDVQVKHIFAGTYANFVTTHQDTSSTRAPGKTLPEISRISQSMAEKWIAVKRRSTEHEMAKSEIRMIFSSPACLTASFLKKRGTGETTSIDVDLEMARDTFKKLTKKEWISSMITTCLEDDLLRALPCHSPHQEALSVFLLLPECPVMHDSKNWKNLVVPFAKAVCEMSKQSLQVLKKCWAFLQESSLNPLIQMLKAAIISQLLHQTKTEQDHCNVKALLGMMKELHKVNKANCRLPENTFNINELSNLLNFYIDRGRQLFRDNHLIPAETPSPVIFSDFPFIFNSLSKIKLLQADSHIKMQMSEKKAYMLMHETILQKKDEFPPSPRFILRVRRSRLVKDALRQLSQAEATDFCKVLVVEFINEICPESGGVSSEFFHCMFEEMTKPEYGMFMYPEMGSCMWFPAKPKPEKKRYFLFGMLCGLSLFNLNVANLPFPLALYKKLLDQKPSLEDLKELSPRLGKSLQEVLDDAADDIGDALCIRFSIHWDQNDVDLIPNGISIPVDQTNKRDYVSKYIDYIFNVSVKAVYEEFQRGFYRVCEKEILRHFYPEELMTAIIGNTDYDWKQFEQNSKYEQGYQKSHPTIQLFWKAFHKLTLDEKKKFLFFLTGRDRLHARGIQKMEIVFRCPETFSERDHPTSITCHNILSLPKYSTMERMEEALQVAINNNRGFVSPMLTQS
- binding [1]: no binding

B2: FLAG-tagged human HERC5 (enzyme, UniProt Q9UII4 1-1024)
chain: MERRSRRKSRRNGRSTAGKAAATQPAKSPGAQLWLFPSAAGLHRALLRRVEVTRQLCCSPGRLAVLERGGAGVQVHQLLAGSGGARTPKCIKLGKNMKIHSVDQGAEHMLILSSDGKPFEYDNYSMKHLRFESILQEKKIIQITCGDYHSLALSKGGELFAWGQNLHGQLGVGRKFPSTTTPQIVEHLAGVPLAQISAGEAHSMALSMSGNIYSWGKNECGQLGLGHTESKDDPSLIEGLDNQKVEFVACGGSHSALLTQDGLLFTFGAGKHGQLGHNSTQNELRPCLVAELVGYRVTQIACGRWHTLAYVSDLGKVFSFGSGKDGQLGNGGTRDQLMPLPVKVSSSEELKLESHTSEKELIMIAGGNQSILLWIKKENSYVNLKRTIPTLNEGTVKRWIADVETKRWQSTKREIQEIFSSPACLTGSFLRKRRTTEMMPVYLDLNKARNIFKELTQKDWITNMITTCLKDNLLKRLPFHSPPQEALEIFFLLPECPMMHISNNWESLVVPFAKVVCKMSDQSSLVLEEYWATLQESTFSKLVQMFKTAVICQLDYWDESAEENGNVQALLEMLKKLHRVNQVKCQLPESIFQVDELLHRLNFFVEVCRRYLWKMTVDASENVQCCVIFSHFPFIFNNLSKIKLLHTDTLLKIESKKHKAYLRSAAIEEERESEFALRPTFDLTVRRNHLIEDVLNQLSQFENEDLRKELWVSFSGEIGYDLGGVKKEFFYCLFAEMIQPEYGMFMYPEGASCMWFPVKPKFEKKRYFFFGVLCGLSLFNCNVANLPFPLALFKKLLDQMPSLEDLKELSPDLGKNLQTLLDDEGDNFEEVFYIHFNVHWDRNDTNLIPNGSSITVNQTNKRDYVSKYINYIFNDSVKAVYEEFRRGFYKMCDEDIIKLFHPEELKDVIVGNTDYDWKTFEKNARYEPGYNSSHPTIVMFWKAFHKLTLEEKKKFLVFLTGTDRLQMKDLNNMKITFCCPESWNERDPIRALTCFSVLFLPKYSTMETVEEALQEAINNNRGFG
- binding [1]: binds

B3: Flag-HERC5, obtained by in vitro transcription and translation (enzyme, UniProt Q9UII4 1-1024)
chain: B2 chain
- binding [2]: binds

B4: Flag-tagged mouse HERC6 (enzyme, UniProt F2Z461 1-1003)
chain: MYFSWAAGSRKPRRLKAGTSGIELLQAASGEHHSLLLFSNHRVYSCGDNSWGQLGQRRDQSTERPEPIQALNDLHVDLVSCGKEHSVAVCHKGKVFAWGAGSEGQLGIGEFKEISFMPTKIKALAGIKIIQVSCGHYHSLALSEDGHVFSWGRNSEGQLGLGKNSRSQAIPQKVKSLEGIPLAQVAAGGTHSFALSLTGTSFGWGSNRSGQLALSGNKVKEQIYKPHSIGALKNLSVIYISCGYEHTAVLTEEGQVFTFGGNSSGQLQPSPRSGQRGPQLIEGIGGRVSQIECASYHTIAYVYTTGQVVSLGRGPSHTSNPTHQEAPAENSDITCLLAAEDLVDIEVKDIFAGAHANFVTTRRVSHTRSTGVSMKILPEIIRINQSLVKKWRAANKRKDREGAKREISLIFSSSACLTASFLKKRDAGENNLIDVDLKLARDVFKKLTTEKWISSLITTCLEEYLLRDLPYSSPHQEALLVFLLLPECSIMQDPKNWKTLAFEFAKAIHKMGPQSLAFLRTCWASLEVSSLNILVQMLKKAIISQIQYGVATEQYITNIKVLLEVIKEVHKANCQLPESAFIINELSGIFNFDAEAGRMFIRHNDLDCTESSDMVVFSDFLFVFDLPSKIKLMKCDSFVKLMSEVMAFPEKMSSPPYLILKVRRSHLVEDTLRQLRQVEDFDLRKQLSVGFINEIRPEAGGVSSEFFHCIFEEMTDPKYEMFIYPEKGSSMWFPVNPKFEKSSYFLFGILCGLSLHNLKVINLPFPLALYKKLLNQKPSLEDLKELSLPLGRNLQEVLNCEAGDIEELHMYFSIYWDQKDVDLIPDGISVPVNETNKRDYVSKYVDYIFNISIKTIYEEFHRGFYKVCNWDIIRQFQPEELMTAIIGNATCDWKQFENNSKYKDGYDKSHPTILLFWKAFHDLTLDEKKKFLLFLTGCDRLHVKGLQNEGIVFRCSETFSEEDNPRSLTCHRMLDLPKYSSMRRMKEALQVAINNSTGFVSQE
- binding [3]: binds

B5: HERC6 (HECT domain- and RCC1-like domain-containing protein 6), endogenous, mouse peritoneal macrophages (enzyme, UniProt F2Z461 1-1003)
chain: B4 chain
- binding [4]: binds
